Data on one molecule can be found in patent US20140377265A1, “ANTICOAGULANT ANTIDOTES” (BOEHRINGER INGELHEIM INTERNATIONAL GMBH, priority 2011, published 2014).

Type in all cases: biochemical
Test [1] has as its system dabigatran anticoagulant activity in human plasma. Nature of the test: Neutralization of dabigatran in thrombin clotting time assay, human plasma. As to conditions: 30 nM dabigatran, 1.5-2 U/mL thrombin. On the procedure:
Briefly human plasma is obtained by taking whole blood into 3.13% sodium citrate. This is then centrifuged to obtain platelet free plasma and transferred to a separate tube and frozen until required on the day of the assay. Plasma is thawed at 37° C. on the day of the assay.
The thrombin clotting time is performed as follows. First thrombin is diluted to manufacturer's specification (3 IU/mL thrombin) in the buffer provided (Dade Behring Test kit) and prewarmed to 37° C. It is used within 2 hrs of being prepared. All assays were performed on a commercially available CL4 clotting machine (Behnk Electronics, Norderstadt, Germany). Fifty μL of plasma is pipetted into provided cuvettes with a magnetic stirrer and allowed to stir for 2 min in the well preheated to 37° C. in the CL4 machine. At this point 100 μL of the thrombin solution is added and the time required for the plasma sample to clot is recorded automatically by the CL4.

Test [2] concerns dabigatran acylglucuronide anticoagulant activity in human plasma. Nature of the test: Neutralization of dabigatran acylglucuronide in thrombin clotting time assay, human plasma. Conditions: 7 nM dabigatran acylglucuronide, 0.4 U/mL thrombin. On the procedure: The assay was initiated by the addition of 0.4 U/mL of thrombin and clotting time was measured.
The major metabolic pathway of dabigatran in humans is through the glucuronidation of the carboxylate moiety.

Test [3] concerns dabigatran anticoagulant activity in human whole blood. Nature of the test: Neutralization of dabigatran in thrombin clotting time assay, human whole blood. As to conditions: 30 nM dabigatran, 1.5-2 U/mL thrombin. On the procedure: The assay was initiated by the addition of 1.5-2 U/mL of thrombin and clotting time was measured.
The assay was performed as described above.

B1: Clone 22: mouse monoclonal anti-dabigatran antibody, VH SEQ ID NO: 70, VK SEQ ID NO: 71 (antibody, listed as Mus musculus, V domains shown)
VH: QVQLEQSGPGLVAPSQRLSITCTVSGFSLTSYIVDWVRQSPGKGLEWLGVIWAGGSTNYNSALRSRLSITKSNSKSQVFLQMNSLQTDDTAIYYCASAAYYSYYNYDGFAYWGQGTLVTVSA
VL: DVVMTQTPLTLSVTIGQPASISCKSSQSLLYTNGKTYLYWLLQRPGQSPKRLIYLVSKLDSGVPDRFSGSGSGTDFTLKISRVEAEDVGIYYCLQSTHFPHTFGGGTKLEIK
modifications: /mol_type=“protein” /note=“DBG22VH” /organism=“Mus musculus”; /mol_type=“protein” /note=“DBG22VK” /organism=“Mus musculus”
On to B1, for which the “reversal of dabigatran mediated prolongation of clotting time” value in test [1] is recorded as “dose dependently inhibited the dabigatran mediated prolongation of clotting time”; in test [1] (listed as clone 22), “completely reversed”. For the same molecule, the “reversal of dabigatran acylglucuronide induced prolongation in clotting time” value in test [2] is on record as “dose dependently inhibited the dabigatran acylglucuronide induced prolongation in clotting time”. Further, the “reversal of anticoagulant effect of dabigatran” value in test [3] is recorded as “reverses the anticoagulant effect of dabigatran”.
